Data taken from PubChem BioAssay AID686979 (National Center for Advancing Translational Sciences (NCATS), 2013).
In all, about 420,000 compounds went through this assay and about 50,000 (12%) were called active. This list was built around the results that the source calls inconclusive (neither active nor inactive); the mix of calls is not that of the screen. Calls follow the shape of the dose curve; as a rule, active = well fitted inhibition curve with a large enough effect; inconclusive = small, poorly fitted or top-dose-only effect; inactive = flat fitted curve, though single readings scatter. Potencies of inconclusive entries are left out as doubtful fits.

Experiment: qHTS for Inhibitors of human tyrosyl-DNA phosphodiesterase 1 (TDP1): qHTS in cells in presence of CPT; also: nearly all actives have a fitted effect of over 55% in size
Conditions: chicken DT40 Tdp1-/-;hTDP1 cells + 20 nM CPT, ATP luminescence, 48 h; activity change, negative = growth inhibition: at 46.2 µM (top of the series)
Method in brief: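 Cell growth measured by CellTiter-Glo luminescence after a minimum 48 h, 37 C compound exposure with 20 nM CPT in Tdp1-knockout DT40 cells stably expressing hTDP1, seeded 400/well; qHTS titration format.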
% is scaled to controls: 0 for no effect and ±100 for the full control effect; potency is read from the fitted curve at half-maximal effect; tags tell the direction and shape of the fitted curve.

Compound	activity change, negative = growth inhibition	Potency
COc1ccc(C(=O)Nc2ccc(NC(=O)c3cccc(OC)c3)cn2)cc1	inconclusive: -35.4% [inhibitor]	–
Cc1cc2nc(-c3ccc(C#N)cc3)c(Cc3cccc(F)c3)n2c(C)c1Br	–	active: 18.4 µM
C=CC[n+]1c(/C=C/c2ccc(OC(C)=O)c(OC)c2)ccc2ccccc21	–	active: 7.31 µM
COc1ccc(C2/C=C\CN(CC3CC3)CC(=O)N2Cc2ccc(F)cc2)cc1 (configuration not stated)	–	inconclusive [inhibitor, partial curve, poor fit]
COc1ccccc1CNC(=O)Nc1cccs1	–	inconclusive [inhibitor, single point]
CCOC(=O)c1ccc(Oc2nc(NC)nc(SC)n2)cc1	–	inconclusive [inhibitor, single point]
Cc1c(C(=O)NNC(=O)c2ccccc2O)oc2ccc(Br)cc12	–	active: 20.6 µM
COc1ccccc1N1CCN(C(=O)c2cnn(-c3ccc(C)c(C)c3)c2C2CCN(C(=O)OC(C)(C)C)CC2)CC1	–	active: 20.6 µM
Cc1cccc(C(=O)Nc2ccc(-c3nc4cc(C(C)C)ccc4o3)cc2)c1	–	active: 16.4 µM
O=C1/C(=C/c2cccnc2)SC(=S)N1N1CCOCC1	–	inconclusive [inhibitor, single point]
COc1ccc(NC(=O)C2(C)Cc3c(-c4cccc(NC(C)=O)c4)ccnc3O2)cn1 (configuration not stated)	–	active: 0.731 µM
Cc1ccc(N2CCN(C(=O)NCc3noc4ccccc34)CC2C)cc1 (configuration not stated)	–	active: 20.6 µM
CC(=O)Nc1ccc(-c2ccnc3c2CC(C(=O)Nc2ccc4c(c2)OCO4)O3)cc1 (configuration not stated)	–	active: 6.51 µM
Clc1ncc(CSc2ccccc2)s1	inactive: 3.27%	–
COc1ccc(S(=O)(=O)n2nc(C)c(S(=O)(=O)N3CCCCCC3)c2C)cc1OC	inactive: -22.6%	–
Cn1c(=O)n(Cc2ccc(F)cc2)c(=O)c2c1nc1n2CCCN1Cc1ccccc1	–	inconclusive [inhibitor, single point]
C[C@H](CO)N1C[C@H](C)[C@@H](CN(C)C(=O)Nc2ccc(C(F)(F)F)cc2)Oc2c(NS(=O)(=O)c3ccccc3)cccc2C1=O	inactive: -0.446%	–
O=C(NCc1ccccc1)c1ccc(CS(=O)(=O)Cc2ccc(F)cc2)o1	–	inconclusive [inhibitor, single point]
COc1ccc(-c2cc(C(=O)OCC(=O)Nc3ccc4c(c3)OCO4)c3ccccc3n2)cc1	–	inconclusive [inhibitor, single point]
COc1cccc(-c2cc(C(=O)NCc3ccco3)no2)c1	inactive: 5.23%	–
O=[N+]([O-])c1ccccc1/C=C/c1ccnc2ccccc12	–	inconclusive [inhibitor, single point]
O=C(O)CCCCCCCCCCP(=O)(c1ccccc1)c1ccccc1	inactive: 4.75%	–
COc1ccc(S(=O)(=O)N(C)C[C@H]2Oc3ncc(-c4ccncc4)cc3C(=O)N([C@@H](C)CO)C[C@@H]2C)cc1	inactive: -20.8%	–
CCOc1ccc(S(=O)(=O)N(CC(=O)NC2CCCCC2C)Cc2ccco2)cc1 (configuration not stated)	–	active: 14.6 µM

Compound	activity change, negative = growth inhibition	Potency
C/C(=N\NC(=S)NCCc1ccccc1)c1cccs1	–	active: 5.17 µM
COc1ccc(C2CC(C)(c3ccc(OC)cc3)Nc3ccccc3N2)cc1 (configuration not stated)	–	inconclusive [inhibitor, single point]
C=CCn1c(=O)/c(=C/c2ccc(Cl)cc2)s/c1=C(\C#N)c1nnc2n1CCCCC2	–	active: 20.6 µM
NC(=O)c1ccsc1NC(=O)COC(=O)c1ccc([N+](=O)[O-])o1	–	inconclusive [inhibitor, full curve]
COc1ccc(-c2c3c(nc4sc(C(=O)Nc5ccc(F)cc5)c(N)c24)CC(C)(C)CC3=O)cc1	–	inconclusive [inhibitor, single point]
COc1ccc(C2C(Oc3ccccc3)C(=O)N2c2cc(C)ccc2C)cc1OC (configuration not stated)	inactive: -0.147%	–
COC(=O)[C@H]1[C@H]2C[C@@H]3c4[nH]c5ccccc5c4CCN3C[C@H]2C[C@@H](OC(=O)c2cc(OC)c(OC)c(OC)c2)[C@@H]1OC	–	active: 1.06 µM
CCOC(=O)c1c(C)oc2ncnc(NCCCN3CCN(c4cc(C)ccc4C)CC3)c12	–	active: 7.31 µM
O=C(Nc1ccncc1)c1cnn2c1NC(=C1CC1)C=C2C(F)F	–	active: 10 µM
COc1ccc(Cl)cc1S(=O)(=O)N1CCN(Cc2cccc(F)c2)CC1	–	inconclusive [inhibitor, single point]
COc1ccc(NC(=O)Cc2ccccc2)cc1	–	inconclusive [inhibitor, partial curve, poor fit]
CN=c1scc(-c2ccccc2F)n1/N=C/c1ccc(O)c(O)c1O	–	active: 13 µM
C=CCn1c(Oc2ccc(C=O)cc2OCC)nc2c1c(=O)n(C)c(=O)n2C	inactive: 0.845%	–
Cc1ccccc1-c1nc(C(N)=O)c2c(n1)n(-c1ccc3c(c1)OCO3)c(=O)n2C	–	inconclusive [inhibitor, single point]
Oc1ccc([C@@H]2CNCCc3c2cc(O)c(O)c3Cl)cc1	–	inconclusive [inhibitor, single point]
CCc1ccc(C2CC(c3ccc(Cl)cc3)n3nc(N)nc3N2)cc1 (configuration not stated)	–	inconclusive [inhibitor, partial curve]
CCn1nc(NC(=O)c2ccncc2)c2cc3ccccc3nc21	inactive: 2.31%	–
Cc1cc2nc(-c3ccc(Cl)cc3)cc(C(F)(F)F)n2n1	inactive: -29%	–
COc1ccc(C(=O)OCC(=O)NC2CCCCCC2)c(OC)c1	inactive: -8.27%	–
COc1ccc(C(=O)C2CCCN(Cc3ccc(C#CCCO)cc3)C2)cc1F (configuration not stated)	–	inconclusive [inhibitor, single point]
C=CCNC(=O)/C(C#N)=C/c1c(C)nn(-c2ccc(Cl)cc2)c1Cl	–	inconclusive [inhibitor, single point]
Cc1ccc(S(=O)(=O)N2CCC(C(=O)OC(C)C(=O)NC3CCCCC3C)CC2)cc1C (configuration not stated)	–	inconclusive [inhibitor, partial curve]
CCN(Cc1ccncc1)Cc1ccc2c(c1)CN(C(=O)c1cccc(-n3nc(C)cc3C)c1)CCO2	–	inconclusive [inhibitor, single point]
